Measured values taken from PubChem BioAssay AID1347165 (National Center for Advancing Translational Sciences (NCATS), 2019).
Screen size: about 220,000 compounds; about 5,700 (2.6%) were called active. This list was built around the results that the source calls inconclusive (neither active nor inactive); the mix of calls is not that of the screen. Calls follow the shape of the dose curve; as a rule, active = well fitted inhibition curve with a large enough effect; inconclusive = small, poorly fitted or top-dose-only effect; inactive = no such curve, though single readings can be large or run the other way. Where the call is inconclusive, the potency comes from a doubtful curve fit.

Biological target: Lysine-specific demethylase 5B (Homo sapiens) (UniProt Q9UGL1)
Experiment: Primary screen for KDM5B Histone Demethylases FDH-coupled qHTS; also: nearly all actives have a fitted effect of over 70% in size; as to activity change, negative = inhibition: 0% is about no effect
Conditions: FDH-coupled NADH fluorescence (FDH is formaldehyde dehydrogenase); activity change, negative = inhibition: at 57.7 µM (top of the series) unless noted
Outline: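 Compound dilutions met 200 nM (final) KDM5BΔAP for 10 min at room temperature before substrate addition. The substrate mix held 12.5 µM H3K4me3 with cofactors 25 µM α-ketoglutarate and 50 µM Fe²⁺. NADH signal gain over 30 min defined activity.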
Potency is read from the fitted curve at half-maximal effect; tags tell the direction and shape of the fitted curve.

Chain of UniProt Q9UGL1 (Q9UGL1 whole entry, looked up): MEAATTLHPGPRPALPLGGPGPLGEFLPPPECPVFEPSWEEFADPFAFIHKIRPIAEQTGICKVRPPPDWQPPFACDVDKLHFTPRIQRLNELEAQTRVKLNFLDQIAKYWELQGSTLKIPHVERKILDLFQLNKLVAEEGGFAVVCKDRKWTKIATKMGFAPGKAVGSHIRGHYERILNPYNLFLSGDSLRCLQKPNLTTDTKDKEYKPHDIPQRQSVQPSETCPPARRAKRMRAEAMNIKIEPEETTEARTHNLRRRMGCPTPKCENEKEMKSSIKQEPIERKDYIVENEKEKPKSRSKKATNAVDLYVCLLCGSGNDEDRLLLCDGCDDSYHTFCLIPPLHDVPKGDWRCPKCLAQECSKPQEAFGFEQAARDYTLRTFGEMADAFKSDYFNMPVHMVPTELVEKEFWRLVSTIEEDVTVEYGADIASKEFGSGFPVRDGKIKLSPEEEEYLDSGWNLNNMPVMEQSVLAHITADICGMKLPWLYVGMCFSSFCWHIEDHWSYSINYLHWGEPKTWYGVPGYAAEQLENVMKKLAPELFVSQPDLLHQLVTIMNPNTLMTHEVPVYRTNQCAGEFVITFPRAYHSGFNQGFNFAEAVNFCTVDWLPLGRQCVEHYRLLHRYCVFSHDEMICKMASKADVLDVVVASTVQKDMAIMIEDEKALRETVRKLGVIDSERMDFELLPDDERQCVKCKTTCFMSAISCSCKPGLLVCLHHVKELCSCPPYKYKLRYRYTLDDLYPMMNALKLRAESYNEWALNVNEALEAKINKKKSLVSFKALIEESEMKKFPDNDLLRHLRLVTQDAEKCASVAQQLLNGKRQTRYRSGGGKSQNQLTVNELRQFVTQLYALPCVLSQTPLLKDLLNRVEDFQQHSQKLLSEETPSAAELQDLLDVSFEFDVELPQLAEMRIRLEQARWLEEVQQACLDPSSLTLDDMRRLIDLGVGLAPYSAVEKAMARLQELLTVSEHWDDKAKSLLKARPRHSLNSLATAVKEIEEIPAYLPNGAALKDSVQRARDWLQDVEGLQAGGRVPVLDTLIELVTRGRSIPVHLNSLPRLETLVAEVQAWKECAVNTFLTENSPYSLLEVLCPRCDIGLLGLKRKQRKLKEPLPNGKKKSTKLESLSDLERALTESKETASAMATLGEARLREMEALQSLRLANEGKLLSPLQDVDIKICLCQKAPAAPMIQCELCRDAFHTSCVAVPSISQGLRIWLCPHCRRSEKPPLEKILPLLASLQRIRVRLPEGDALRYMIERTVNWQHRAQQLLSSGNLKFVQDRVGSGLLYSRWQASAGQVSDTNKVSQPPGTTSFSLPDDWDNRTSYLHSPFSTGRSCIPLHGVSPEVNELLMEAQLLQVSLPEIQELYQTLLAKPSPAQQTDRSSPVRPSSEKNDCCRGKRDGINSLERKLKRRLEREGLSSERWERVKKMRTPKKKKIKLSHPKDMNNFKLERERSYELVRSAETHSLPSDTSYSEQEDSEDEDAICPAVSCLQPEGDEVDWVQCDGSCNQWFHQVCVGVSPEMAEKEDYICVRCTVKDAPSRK

SMILES | Potency | activity change, negative = inhibition
COc1cccc(-c2cn3c(n2)N(C(=O)C2CCCC2)CCC3)c1 | inconclusive: 20 µM [inhibitor, partial curve] | 
Cc1nnc(N2CCN(C(=O)NC(C)C)CC2)c2nn(-c3ccccc3)c(C)c12 | inconclusive: 35.5 µM [inhibitor, single point] | 
COc1ccc2c(c1)C=C(CN1CCC(CO)(Cc3ccccc3Cl)CC1)CO2 | inconclusive: 14.1 µM [inhibitor, partial curve, poor fit] | 
OC1CCC(NCc2ccc(-c3cnc4c(OCc5ccccc5)nccn34)cc2)CC1 (stereo not drawn) | active: 28.2 µM | 
COc1ccc(C(=O)N(Cc2cc3cccc(C)c3[nH]c2=O)c2ccccc2)cc1 |  | inactive: 4.85%
O=C(COC(=O)c1ccccc1Br)c1ccc([N+](=O)[O-])cc1 |  | inactive: 3.3%
COc1cc2cc(C(=O)NCC(=O)Nc3ccc4c(c3)OCO4)n(C)c2c(OC)c1OC | inconclusive: 22.4 µM [inhibitor, partial curve, poor fit] | 
Cc1ccccc1S(=O)(=O)N1CCCC(CCC(=O)NC2CCCCCC2)C1 (stereo not drawn) | inconclusive: 28.2 µM [inhibitor, partial curve] | 
O=C1NC2(CCCC2)C(=O)N1Cc1coc(-c2cccc(F)c2)n1 |  | inactive: -9.3%
Cc1cc(-c2nc3ncccc3o2)ccc1NC(=O)COc1ccccc1C | inconclusive: 20 µM [inhibitor, partial curve, poor fit] | 
CSCC(=O)N1CCN2C(=O)c3cc(-c4ccccc4F)ccc3NC(=O)[C@H]2C1 | inconclusive: 31.6 µM [inhibitor, single point] | 
Cc1c(CC(=O)N2CCN(C(=O)C3COc4ccccc4O3)CC2)c(=O)oc2cc(O)ccc12 (stereo not drawn) | inconclusive: 11.2 µM [inhibitor, partial curve, poor fit] | 
O=c1c2oc3ccccc3c2n(Cc2cccc(Cl)c2)c(=O)n1Cc1ccco1 | inconclusive: 15.8 µM [inhibitor, partial curve, poor fit] | 
COCCCNC(=O)c1cc(-c2cccc(C)c2)nc2ccccc12 | inconclusive: 35.5 µM [inhibitor, single point] | 
COc1ccc(/C(C#N)=C/c2cccnc2)cc1 | inconclusive: 14.1 µM [inhibitor, partial curve, poor fit] | 
COc1ccc(CN2CCc3nc(C(=O)Nc4cccnc4)oc3CC2)cc1OC |  | inactive: -9.6% [at 86.2 µM]
CCCCc1cc(C[C@@H]2C[C@H](NC(=O)NC(C)C)C2(C)C)no1 | inconclusive: 31.6 µM [inhibitor, single point] | 
CCOC(=O)C1=CN(c2ccc(F)cc2)C=C(C(=O)OCC)C1c1ccc2c(c1)OCO2 |  | inactive: 3.25%
COc1cccc(CNC(=O)c2ccc3c(c2)c(C)c(C)n3Cc2ccccc2)c1OC | inconclusive: 31.6 µM [inhibitor, partial curve, poor fit] | 
COc1cc(NC(=O)Cn2c(N3CCc4ccccc4C3)nc(C)cc2=O)cc(OC)c1 | inconclusive: 25.1 µM [inhibitor, partial curve] | 
COc1cc(OC)cc(-c2nnc(SCc3nc4ccccc4o3)o2)c1 |  | inactive: -2.65%
CC#CCn1cc2c3c(cccc31)[C@H](CC(C)C)N[C@H](C(=O)N1CCN(CCOC)CC1)C2 | active: 28.2 µM | 
Cc1noc(-c2cccn3c(CNC(=O)c4ccoc4)nnc23)n1 | active: 28.2 µM | 

SMILES | Potency | activity change, negative = inhibition
Cc1ccccc1C(=O)Nc1scc(-c2ccc(Br)cc2)c1C(=O)O | inconclusive: 31.6 µM [inhibitor, single point] | 
CCn1c(CCc2ccc(NC(=O)c3ccc(C#N)cc3)cc2)nc2ccccc21 |  | inactive: -10.4%
COCC(O)CNC(=O)c1cc(-c2ccc(OC)cc2)nc2ccccc12 (stereo not drawn) | inconclusive: 39.8 µM [inhibitor, single point] | 
O=C(Cc1ccccn1)N1CCn2c(nnc2-c2ccccc2)C1 | inconclusive: 39.8 µM [inhibitor, single point] | 
COc1ccc(-c2cc(C(F)(F)F)nc(S(C)(=O)=O)n2)cc1 | inconclusive: 28.2 µM [inhibitor, partial curve, poor fit] | 
CCc1nc2c(c(-c3ccc(Cl)cc3)n1)CN(Cc1ccsc1)CC2 | inconclusive: 31.6 µM [inhibitor, partial curve, poor fit] | 
O=S(=O)(Nc1ccc2oc(-c3ccc(I)cc3)nc2c1)c1ccccc1 | inconclusive: 31.6 µM [inhibitor, single point] | 
O=C(CNC(=O)c1ccccc1F)NC1CCN(Cc2ccccc2)CC1 |  | inactive: -0.242%
Cc1ccc(C(O)Cn2ccn3nc(-c4ccc(F)cc4)cc3c2=O)cc1 (stereo not drawn) | active: 14.1 µM | 
Cn1nc(C(=O)N2CC(C)(C)C(C)(O)C2)cc1-c1cccs1 (stereo not drawn) |  | inactive: -15.4%
CCOC(=O)c1cc2c(=O)n3ccccc3nc2n(C(C)C)c1=NC(=O)c1cc2ccccc2o1 | inconclusive: 2.24 µM [inhibitor, partial curve, poor fit] | 
O=C(Nc1ccc(F)c(F)c1)c1cc(S(=O)(=O)NC2CCCCCC2)ccc1F | inconclusive: 17.8 µM [inhibitor, partial curve, poor fit] | 
CCc1ccc(C(=O)c2cn(CC(=O)NC3CCCCC3)c3nc(C)ccc3c2=O)cc1 |  | inactive: -5.36%
CC(=O)Nc1ccc(-c2csc(Nc3cccc4ccccc34)n2)cc1 | inconclusive: 28.2 µM [inhibitor, partial curve, poor fit] | 
COc1ccccc1Oc1c(C)oc2cc(OCC(=O)O)ccc2c1=O | inconclusive: 39.8 µM [inhibitor, single point] | 
COCCNC(=S)Nc1ccc(N2CCOCC2)c(S(=O)(=O)Nc2ccccc2OC)c1 | inconclusive: 14.1 µM [inhibitor, partial curve, poor fit] | 
O=C(Cn1cnc(S(=O)(=O)N2CCc3ccccc32)c1)NC1CCCCCC1 |  | inactive: 0.0491%
Cc1nc(C)c(C(=O)N2CCc3c(c(-c4nncn4Cc4ccccc4)nn3C)C2)s1 | inconclusive: 28.2 µM [inhibitor, single point] | 
COc1ccc(NC(C)=O)cc1NC(=O)c1cc(-c2ccco2)nc2ccccc12 | inconclusive: 28.2 µM [inhibitor, partial curve, poor fit] | 
Cn1ncc(N2CCC(C(=O)Nc3ccccc3CCc3ccccn3)C2)cc1=O (stereo not drawn) | inconclusive: 22.4 µM [inhibitor, partial curve, poor fit] | 
Cc1noc(C)c1CC(=O)N1CCC(c2noc(-c3cnccn3)n2)C1 (stereo not drawn) |  | inactive: -15.8%
COc1ccc(-c2cc(C(=O)NCC(C)C)c3c(C4CCNC4)noc3n2)cc1 (stereo not drawn) | inconclusive: 56.2 µM [inhibitor, partial curve, poor fit] | 
CC1(CNc2ccccc2)COc2ccc(C(=O)NCc3cccc(F)c3)cc2N1 (stereo not drawn) | inconclusive: 28.2 µM [inhibitor, partial curve] | 

SMILES | Potency | activity change, negative = inhibition
Cn1c(=O)c2c(ncn2CCC(=O)Nc2c(Cl)cccc2Cl)n(C)c1=O |  | inactive: 18.7%
Cc1ccccc1C(=O)NC1CCCC(C)C1 (stereo not drawn) |  | inactive: 6.55%
O=C(NCCc1ccccc1)c1nnn2c1COC(c1ccc(Br)cc1)C2 (stereo not drawn) |  | inactive: 28.2%
COCCn1c(SCC(=O)c2cc(C)n(CC(F)(F)F)c2C)nnc1-c1ccc(Cl)cc1 |  | inactive: 19.8%
Cc1ccc(-c2cc(C(=O)OCC(=O)c3c(N)n(C)c(=O)n(C)c3=O)c3ccccc3n2)cc1 |  | inactive: -19.5%
CCOc1ccccc1NC(=O)CSc1nnc2[nH]c(=O)cc(-c3ccccc3)n12 | inconclusive: 28.2 µM [inhibitor, partial curve, poor fit] | 
CCCCOc1ccc(/C=C/C(=O)c2ccc(O)c(OC)c2)cc1OCC |  | inactive: -21.1%
COc1cccc2c1cc1c(=O)n(CC(=O)N3CCN(c4ccc(Cl)cc4)CC3)nc(C)n12 | inconclusive: 31.6 µM [inhibitor, partial curve, poor fit] | 
Cc1ccc(S(=O)(=O)Nc2ccc(C)n(CC(=O)Nc3ccccc3)c2=O)cc1 |  | inactive: 3.76%
O=C(CCc1ncc(-c2ccc(F)cc2F)o1)N1CCN(S(=O)(=O)c2cc(F)ccc2F)CC1 |  | inactive: 9.72%
CCc1noc(-c2nc(-c3ccc(OC)c(OC)c3)no2)n1 |  | inactive: -4.97%
COc1ccc(-c2nc(C#N)c(NC(C)C)o2)cc1 | inconclusive: 5.01 µM [inhibitor, full curve, poor fit] | 
CCCCOc1ccc(C(=O)Nc2cccc3ccc(C)nc23)cc1 |  | inactive: 17.3%
CN(C)c1ccc(CNC(=O)c2cccc(NC(=O)N3CCSc4ncccc43)c2)cc1 | inconclusive: 39.8 µM [inhibitor, single point] | 
Fc1ccc(N/N=C/c2ccccc2Br)c(F)c1 |  | inactive: -20.2%
OCCC1CN(c2nccc(-c3ccccn3)n2)CCN1Cc1ccoc1 (stereo not drawn) | inconclusive: 28.2 µM [inhibitor, single point] | 
Cc1nn2c(c1-c1ccccc1OCc1ccccc1)N(Cc1ccc(C(=O)O)s1)CCC2 | inconclusive: 20 µM [inhibitor, single point] | 
Cc1ccc2scc(N3CCc4ccccc4C3)c(=O)c2c1 | inconclusive: 31.6 µM [inhibitor, partial curve, poor fit] | 
O=C(/C=C/c1ccc(-c2ccc(Cl)c(Cl)c2)o1)c1ccc(Br)cc1 |  | inactive: -28.4%
Cc1ccc2cccc(OCCNC(=O)C3NCCc4[nH]cnc43)c2n1 (stereo not drawn) | active: 14.1 µM | 
CCCN(CCC)C(=O)CC1=CSC2=NC(CC)=C(C(=O)OC)C(c3cccc(F)c3)N12 (stereo not drawn) | inconclusive: 22.4 µM [inhibitor, single point] | 
Fc1cccc(Nc2c3c(nc4ccccc24)CCC3)c1 | inconclusive: 28.2 µM [inhibitor, partial curve, poor fit] | 
